Article PMC3578790, “Tight Interconnection and Multi-Level Control of Arabidopsis MYB44 in MAPK Cascade Signalling”
These are yes or no findings as the source states them, for the method shown. For some of these results: In cells and extracts the contact can be indirect. Some binding calls cover weakened binding; strength is not graded here. For some of these results: Sequences can lack the tags named with a protein. One block for each molecule: values may come before it.

Protein sequences, listed by entry. Tags and fused reporters are not part of them. Lines headed by an entry give the natural chain unless they say otherwise; changes in a name come on top.
UniProt Q9FDW1: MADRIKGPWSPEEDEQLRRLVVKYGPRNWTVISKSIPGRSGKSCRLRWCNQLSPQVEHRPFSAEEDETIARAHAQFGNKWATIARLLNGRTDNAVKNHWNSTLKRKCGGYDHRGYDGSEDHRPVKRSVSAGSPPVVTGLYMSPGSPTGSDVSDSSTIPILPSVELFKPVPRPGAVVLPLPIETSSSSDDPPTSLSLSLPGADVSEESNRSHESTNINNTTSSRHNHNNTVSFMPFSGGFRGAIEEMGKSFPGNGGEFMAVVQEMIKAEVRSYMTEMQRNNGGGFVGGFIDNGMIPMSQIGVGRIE
UniProt Q39025: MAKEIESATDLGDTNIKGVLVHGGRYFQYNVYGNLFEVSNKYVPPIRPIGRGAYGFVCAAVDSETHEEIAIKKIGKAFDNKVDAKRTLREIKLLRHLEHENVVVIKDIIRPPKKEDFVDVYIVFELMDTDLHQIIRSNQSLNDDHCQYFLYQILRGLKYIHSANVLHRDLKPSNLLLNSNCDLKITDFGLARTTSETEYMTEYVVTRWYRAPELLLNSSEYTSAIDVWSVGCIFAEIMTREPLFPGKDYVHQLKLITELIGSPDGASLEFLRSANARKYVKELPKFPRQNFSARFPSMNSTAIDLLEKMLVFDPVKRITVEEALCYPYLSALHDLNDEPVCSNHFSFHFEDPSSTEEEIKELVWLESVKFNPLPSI
UniProt Q39026: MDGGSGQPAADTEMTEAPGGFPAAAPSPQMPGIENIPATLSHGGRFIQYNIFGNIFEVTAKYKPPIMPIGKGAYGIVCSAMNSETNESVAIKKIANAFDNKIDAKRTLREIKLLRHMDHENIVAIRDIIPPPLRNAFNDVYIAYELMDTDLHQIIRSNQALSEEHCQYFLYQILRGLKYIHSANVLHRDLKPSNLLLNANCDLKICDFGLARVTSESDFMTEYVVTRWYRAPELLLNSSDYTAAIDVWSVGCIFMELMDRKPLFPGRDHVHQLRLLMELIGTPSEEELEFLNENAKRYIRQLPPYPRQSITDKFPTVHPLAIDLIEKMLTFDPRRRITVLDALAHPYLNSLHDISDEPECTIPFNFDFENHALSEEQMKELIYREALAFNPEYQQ
UniProt Q9SN12: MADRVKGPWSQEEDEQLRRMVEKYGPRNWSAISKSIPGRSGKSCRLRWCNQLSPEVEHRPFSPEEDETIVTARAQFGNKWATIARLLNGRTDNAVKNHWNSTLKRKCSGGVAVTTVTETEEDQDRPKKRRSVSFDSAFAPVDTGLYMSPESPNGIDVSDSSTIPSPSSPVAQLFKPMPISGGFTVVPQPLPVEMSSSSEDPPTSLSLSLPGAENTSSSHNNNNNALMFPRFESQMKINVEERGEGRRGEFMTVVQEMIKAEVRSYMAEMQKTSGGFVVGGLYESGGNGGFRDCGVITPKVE

Experiments:
[1] = target: MYB44 (BiFC fusions MYB44-YN and MYB44-YC) (Arabidopsis thaliana) (UniProt Q9FDW1); assay: split reporter; BiFC with YN/YC halves of YFP, Arabidopsis mesophyll protoplasts, PEG-mediated transformation, fluorescence microscopy 12-16 h after transformation
[2] = target: MYB44 (BiFC fusions MYB44-YN and MYB44-YC) (Arabidopsis thaliana) (UniProt Q9FDW1); assay: split reporter; BiFC with YN/YC halves of YFP, tobacco leaves infiltrated with Agrobacteria (GV3101, pGreen constructs), fluorescence microscopy 4-7 days after infiltration
[3] = target: T1, MKK4 (BiFC fusion MKK4-YN) (Arabidopsis) (UniProt O80397); assay: as above
T1 sequence: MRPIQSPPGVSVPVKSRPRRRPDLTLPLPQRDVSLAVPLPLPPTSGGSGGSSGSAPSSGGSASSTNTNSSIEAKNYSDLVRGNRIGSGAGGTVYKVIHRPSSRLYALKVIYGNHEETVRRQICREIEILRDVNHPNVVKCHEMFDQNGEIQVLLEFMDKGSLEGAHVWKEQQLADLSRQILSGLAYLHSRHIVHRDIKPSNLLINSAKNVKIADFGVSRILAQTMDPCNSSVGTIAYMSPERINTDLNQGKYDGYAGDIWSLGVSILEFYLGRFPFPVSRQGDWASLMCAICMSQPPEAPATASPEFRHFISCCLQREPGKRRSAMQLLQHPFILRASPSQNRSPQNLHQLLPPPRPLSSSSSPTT

BD-MKK4 (Arabidopsis) = target: T2, BD-MKK4 (Arabidopsis) (UniProt O80397); assay: two-hybrid; targeted test: pGAD (activation domain) and pBTM (binding domain) fusions in S. cerevisiae L40, selection on -Leu/-Trp, liquid beta-galactosidase activity assay; MKK autoactivity subtracted
T2 sequence: T1 sequence

[4] = target: MYB44 (yeast two-hybrid fusions AD-MYB44 and BD-MYB44) (Arabidopsis) (UniProt Q9FDW1); assay: as above
BD-MKK5 (Arabidopsis) = target: T3, BD-MKK5 (Arabidopsis) (UniProt Q8RXG3); assay: as above
T3 sequence: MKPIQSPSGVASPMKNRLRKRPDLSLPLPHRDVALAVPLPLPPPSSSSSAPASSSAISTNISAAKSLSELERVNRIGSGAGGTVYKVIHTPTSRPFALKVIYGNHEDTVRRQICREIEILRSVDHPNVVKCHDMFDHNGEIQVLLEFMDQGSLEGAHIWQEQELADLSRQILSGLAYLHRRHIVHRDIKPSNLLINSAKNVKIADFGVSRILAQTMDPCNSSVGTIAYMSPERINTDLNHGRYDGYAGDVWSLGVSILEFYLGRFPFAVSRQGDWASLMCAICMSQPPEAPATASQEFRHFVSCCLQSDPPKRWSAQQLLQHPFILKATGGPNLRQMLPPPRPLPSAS

[5] = target: MYB44 S145A (BiFC fusions S145A-YN and S145A-YC) (Arabidopsis thaliana) (UniProt Q9FDW1); assay: split reporter; BiFC with YN/YC halves of YFP, tobacco leaves infiltrated with Agrobacteria (GV3101, pGreen constructs), fluorescence microscopy 4-7 days after infiltration
[6] = target: MYB44 S145D (BiFC fusions S145D-YN and S145D-YC) (Arabidopsis thaliana) (UniProt Q9FDW1); assay: as above
[7] = target: MYB44 (BiFC fusions MYB44-YN and MYB44-YC) (Arabidopsis thaliana) (UniProt Q9FDW1); assay: split reporter; BiFC with YN/YC halves of YFP, Arabidopsis mesophyll protoplasts, PEG-mediated transformation, fluorescence microscopy 12-16 h after transformation; remark: listed apart in the source
[8] = target: MYB44 (BiFC fusions MYB44-YN and MYB44-YC) (Arabidopsis thaliana) (UniProt Q9FDW1); assay: split reporter; BiFC with YN/YC halves of YFP, tobacco leaves infiltrated with Agrobacteria (GV3101, pGreen constructs), fluorescence microscopy 4-7 days after infiltration; remark: listed apart in the source
[9] = target: T1, MKK4 (BiFC fusion MKK4-YN) (Arabidopsis); assay: split reporter; BiFC with YN/YC halves of YFP, Arabidopsis mesophyll protoplasts, PEG-mediated transformation, fluorescence microscopy 12-16 h after transformation
[10] = target: T1, MKK4 (BiFC fusion MKK4-YN) (Arabidopsis); assay: split reporter; BiFC with YN/YC halves of YFP, tobacco leaves infiltrated with Agrobacteria (GV3101, pGreen constructs), fluorescence microscopy 4-7 days after infiltration; remark: listed apart in the source

binding [1]: no binding
binding [2]: no binding
Molecule: MPK5-YC (from UniProt Q39025 1-376)

binding [3]: binds
Molecule: MPK6 (BiFC fusion) (from UniProt Q39026 1-395)

binding (BD-MKK4 (Arabidopsis)): binds
Molecule: MPK6 (yeast two-hybrid fusion) (from UniProt Q39026 1-395)

binding [1]: binds
binding [2]: binds
Molecule: MYB44 (BiFC fusions MYB44-YN and MYB44-YC) (from UniProt Q9FDW1 1-305)

binding (BD-MKK4 (Arabidopsis)): binds
binding [4]: binds
binding (BD-MKK5 (Arabidopsis)): binds weakly
Molecule: MYB44 (yeast two-hybrid fusions AD-MYB44 and BD-MYB44) (from UniProt Q9FDW1 1-305)

binding [5]: binds
Molecule: MYB44 S145A (BiFC fusions S145A-YN and S145A-YC) (from UniProt Q9FDW1 1-305)

binding [6]: binds
Molecule: MYB44 S145D (BiFC fusions S145D-YN and S145D-YC) (from UniProt Q9FDW1 1-305)

binding [1]: binds
Molecule: MYB77 (BiFC fusion) (from UniProt Q9SN12 1-301)

binding [7]: binds
binding [8]: binds
B1: MKK4 (BiFC fusion MKK4-YN) (protein, UniProt O80397 1-366)
chain: T1 sequence

binding [9]: binds
binding [10]: binds
B2: MPK3 (BiFC fusions MPK3-YC and MPK3-YN) (protein, UniProt Q39023 1-370)
chain: MNTGGGQYTDFPAVETHGGQFISYDIFGSLFEITSKYRPPIIPIGRGAYGIVCSVLDTETNELVAMKKIANAFDNHMDAKRTLREIKLLRHLDHENIIAIRDVVPPPLRRQFSDVYISTELMDTDLHQIIRSNQSLSEEHCQYFLYQLLRGLKYIHSANIIHRDLKPSNLLLNANCDLKICDFGLARPTSENDFMTEYVVTRWYRAPELLLNSSDYTAAIDVWSVGCIFMELMNRKPLFPGKDHVHQMRLLTELLGTPTESDLGFTHNEDAKRYIRQLPNFPRQPLAKLFSHVNPMAIDLVDRMLTFDPNRRITVEQALNHQYLAKLHDPNDEPICQKPFSFEFEQQPLDEEQIKEMIYQEAIALNPTYG
